# Results from PubChem BioAssay AID504332 (National Center for Advancing Translational Sciences (NCATS), 2011).
# Hit rate of the full screen: of about 350,000 compounds, about 31,000 (8.9%) were called active. Inconclusive means that the source gave no clear call. Such entries were picked first, then a sample of the others. Calls come from the whole dose curve; as a rule, active = well fitted inhibition curve with a large enough effect; inconclusive = small, poorly fitted or top-dose-only effect; inactive = no such curve, though single readings can be large or run the other way. Where the call is inconclusive, the potency comes from a doubtful curve fit.
# Target: Histone-lysine N-methyltransferase EHMT2 (Homo sapiens) (UniProt Q96KQ7)
# Assay: qHTS Assay for Inhibitors of Histone Lysine Methyltransferase G9a; note: nearly all actives have a fitted effect of over 75% in size
# Details: G9a H3K9 monomethylation, AlphaScreen, 2 h; activity, negative = inhibition: at 59 µM (top of the series) unless noted
# Summary of the method: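 Step 1: enzyme (final 20 nM) with compound, 15 min RT. Step 2: substrate peptide 500 nM and SAM 20 uM, 2 h RT. Step 3: anti-H3K9me1 antibody and AlphaScreen beads, 10 min, then plate read.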
# % is set by controls: 0 for no effect and ±100 for the full control effect; potency is the fitted concentration of half-maximal effect; tags give direction and shape of the fitted curve.
# Chain of UniProt Q96KQ7 (Q96KQ7 whole entry, looked up): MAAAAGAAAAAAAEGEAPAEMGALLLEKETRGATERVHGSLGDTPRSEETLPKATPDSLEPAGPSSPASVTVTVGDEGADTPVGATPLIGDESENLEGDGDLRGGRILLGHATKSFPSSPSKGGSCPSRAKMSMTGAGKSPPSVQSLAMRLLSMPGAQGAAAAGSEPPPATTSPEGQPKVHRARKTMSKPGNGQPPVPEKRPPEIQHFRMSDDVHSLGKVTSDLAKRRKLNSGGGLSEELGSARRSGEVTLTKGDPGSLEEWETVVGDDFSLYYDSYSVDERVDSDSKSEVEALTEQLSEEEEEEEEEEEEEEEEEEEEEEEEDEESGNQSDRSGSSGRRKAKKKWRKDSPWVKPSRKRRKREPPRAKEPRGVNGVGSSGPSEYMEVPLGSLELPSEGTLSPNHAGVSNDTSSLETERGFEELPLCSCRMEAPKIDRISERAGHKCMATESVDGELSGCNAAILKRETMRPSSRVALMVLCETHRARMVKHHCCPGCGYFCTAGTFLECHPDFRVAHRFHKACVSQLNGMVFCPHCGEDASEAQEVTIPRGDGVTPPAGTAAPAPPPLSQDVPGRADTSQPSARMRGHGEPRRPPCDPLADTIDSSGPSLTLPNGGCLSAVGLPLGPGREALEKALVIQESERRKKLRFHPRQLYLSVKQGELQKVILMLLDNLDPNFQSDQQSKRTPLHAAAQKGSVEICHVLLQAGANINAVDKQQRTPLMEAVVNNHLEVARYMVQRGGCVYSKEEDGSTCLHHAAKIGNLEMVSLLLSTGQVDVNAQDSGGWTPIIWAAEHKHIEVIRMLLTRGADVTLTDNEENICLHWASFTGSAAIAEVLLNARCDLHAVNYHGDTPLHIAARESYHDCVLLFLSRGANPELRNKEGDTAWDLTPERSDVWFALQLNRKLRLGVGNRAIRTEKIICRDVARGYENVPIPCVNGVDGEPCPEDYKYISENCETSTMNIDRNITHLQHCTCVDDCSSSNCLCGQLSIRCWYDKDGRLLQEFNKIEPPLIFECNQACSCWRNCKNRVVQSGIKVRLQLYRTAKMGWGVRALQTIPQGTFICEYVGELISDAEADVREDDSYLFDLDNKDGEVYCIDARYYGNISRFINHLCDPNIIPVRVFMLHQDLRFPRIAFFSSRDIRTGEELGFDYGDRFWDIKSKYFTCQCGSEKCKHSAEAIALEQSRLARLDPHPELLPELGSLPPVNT
Structure (SMILES),Potency,"activity, negative = inhibition"
COC(=O)CSc1nc2ccc(NC(=O)CSc3nnnn3Cc3ccccc3)cc2s1,"inconclusive: 35.5 µM [inhibitor, partial curve, poor fit]",
COc1ccc(-c2csc(N(CCCN3CCOCC3)C(=O)c3ccco3)n2)cc1,inactive,
COc1ccc(CCNc2nc(C)c(C(C)=O)s2)cc1OC,active: 3.98 µM,
O=C(Nc1nnc(SCc2cccc3ccccc23)s1)C1COc2ccccc2O1 (stereo unspecified),"inconclusive: 70.8 µM [inhibitor, single point]",
CCN1C(=O)[C@H]2[C@@H](c3ccc(-c4ccc(C(C)=O)cc4)cc3)N3CCCC[C@@]3(C(=O)OC)[C@H]2C1=O,,inactive: -4.09% [at 2.33 µM]
COc1ccc(OC)c(C2C(C(C)=O)=C(O)C(=O)N2CCc2ccc(OC)c(OC)c2)c1 (stereo unspecified),"inconclusive: 39.8 µM [inhibitor, single point]",
Cc1n[nH]c(C)c1S(=O)(=O)N1CCc2ccccc2C1,,inactive: 17% [at 0.0925 µM]
CC(=O)NNc1[nH]c2c(c(=O)c1[N+](=O)[O-])c(=O)n(C)c(=O)n2C,"inconclusive: 50.1 µM [inhibitor, partial curve, poor fit]",
CCc1cc(C(=O)N2CCN(C(=O)c3ccco3)CC2)sc1C,"inconclusive: 89.1 µM [inhibitor, partial curve, poor fit]",
CC1(C)CC(=O)C(Sc2ccccc2C(=O)O)=C(O)C1,"inconclusive: 20 µM [inhibitor, single point]",
Cc1ccc2cc(CN(CC3CCCO3)C(=S)NCc3ccco3)c(=O)[nH]c2c1 (stereo unspecified),"inconclusive: 39.8 µM [inhibitor, partial curve, poor fit]",
Cc1cc(C(=O)Cn2nc(C(=O)O)c3ccccc3c2=O)c(C)n1CCc1ccc(Cl)cc1,"inconclusive: 15.8 µM [inhibitor, full curve]",
O=C(Nc1nnc(CCS(=O)(=O)c2ccc3ccccc3c2)s1)c1ccc([N+](=O)[O-])cc1,inactive,
CN1/C(=C\C(=O)CSc2cccc[n+]2[O-])C(C)(C)c2ccccc21,active: 10 µM,
COc1ccccc1CNC(=O)c1c2c(nc3ccccc13)C(=O)N(C1CCCCC1)C2,inactive,
COc1cccc(NC(=O)C2CCN(C(=O)[C@@H]3Cc4ccccc4CN3)CC2)c1,"inconclusive: 89.1 µM [inhibitor, single point]",
O=c1c2c(nc3n1CCCCC3)sc1c(O)cccc12,"inconclusive: 1.78 µM [inhibitor, partial curve, poor fit]",
CCn1cc(C(=O)OCC(=O)c2cc(C)n(-c3cccc(C(F)(F)F)c3)c2C)c(=O)c2ccc(C)nc21,"inconclusive: 39.8 µM [inhibitor, single point]",
CCC(=O)NC(=S)Nc1ccc(NC(=O)c2cccc([N+](=O)[O-])c2C)cc1,"inconclusive: 1.58 µM [inhibitor, full curve]",
CCCOC(=S)N/C(=N\S(=O)(=O)c1ccccc1)c1ccccc1,active: 10 µM,
CCC(=O)Nc1ccc(OCC2CCCO2)cc1 (stereo unspecified),"inconclusive: 70.8 µM [inhibitor, single point]",

Structure (SMILES),Potency,"activity, negative = inhibition"
CC(=O)Oc1ccc(C(=O)O)c(OC(C)=O)c1,inactive,
COc1ccc(C)cc1NC(=O)CN(c1ccc(C)cc1)S(C)(=O)=O,"inconclusive: 39.8 µM [inhibitor, partial curve]",
Nc1nn2c(-c3ccccc3)cc(=O)[nH]c2c1N=Nc1ccc(O)cc1,"inconclusive: 44.7 µM [inhibitor, partial curve, poor fit]",
COc1ccc(-c2csc(NC(=O)c3ccccc3C(=O)O)n2)cc1,"inconclusive: 89.1 µM [inhibitor, single point]",
O=C(CN1CCN(C2CCCCC2)CC1)c1ccc2cc[nH]c2c1,active: 28.2 µM,
O=C(Nc1c(C(=O)N2CCN(c3ccc(F)cc3)CC2)oc2ccccc12)c1ccco1,"inconclusive: 22.4 µM [inhibitor, partial curve, poor fit]",
COCCCn1c(-c2ccc(OC)cc2)nc2c1c(=O)[nH]c(=O)n2Cc1ccccc1,"inconclusive: 56.2 µM [inhibitor, partial curve]",
COc1ccccc1C1C=C(c2ccc(C)cc2)Nc2nnnn21 (stereo unspecified),"inconclusive: 89.1 µM [inhibitor, single point]",
COc1ccc(-n2c(C)c([N+](=O)[O-])c3ccc(O)c(CN(C)C)c32)cc1,"inconclusive: 10 µM [inhibitor, partial curve, poor fit]",
CCCc1nn2c(=O)cc(COC(=O)c3ccc(NC(=O)c4cccs4)cc3)nc2s1,,inactive: -4.41% [at 12.7 µM]
CCc1ccc(NC(=O)CSC2=Nc3ccccc3C3=NC(CCC(=O)NCc4cccs4)C(=O)N23)cc1 (stereo unspecified),inactive,
CCSc1nnc(NC(=O)C(C)(C(F)(F)F)C(F)(F)F)s1,"inconclusive: 2.51 µM [inhibitor, partial curve, poor fit]",
Cc1cccc(-n2ccnc2SCC(=O)Nc2ccccc2C(F)(F)F)c1,"inconclusive: 35.5 µM [inhibitor, single point]",
Cc1cc(Br)ccc1SCC(=O)OCC(=O)c1c(N)n(C)c(=O)n(C)c1=O,inactive,
COc1ccc(/C=N/NC(=O)c2cc(OC)c(OC)c(OC)c2)cc1CN1CCc2cc(OC)c(OC)cc2C1C (stereo unspecified),"inconclusive: 44.7 µM [inhibitor, partial curve]",
COc1ccc(NC2CCCN(C(=O)CCN3CCCO3)C2)cc1 (stereo unspecified),"inconclusive: 89.1 µM [inhibitor, single point]",
O=C(NCc1cccc2ccsc12)c1cccs1,,inactive: 15.5% [at 2.33 µM]
Cc1cc([N+](=O)[O-])c(C)cc1-c1ccc(/C=N/n2cnnc2)o1,"inconclusive: 79.4 µM [inhibitor, single point]",
COc1ccc(OC)c(CCNC(=O)CCCc2nnc3n(C)c(=O)c4sccc4n23)c1,inactive,
Cc1cccc(-c2cc3c(nn2)-c2ccccc2C3=O)c1,,inconclusive: -88% [inhibitor]
